Five molecules from patent US20250270339A1 (Alector, published 2025) can be followed below.

By Kd is commonly meant the free concentration of one partner at which half of the binding sites on the other are occupied at equilibrium, for simple one-to-one binding. A higher Kd goes with a looser complex.

Assay [1] addresses T1, Cyno TfR ECD Avi-His (cynomolgus macaque, UniProt Q5RDH6 89-760 (Pongo abelii entry), biotin on the Avi tag (BirA) where captured on streptavidin).
T1 construct: also called Cyno TfR Avi-His; cyno TfR Avi-His
T1 chain: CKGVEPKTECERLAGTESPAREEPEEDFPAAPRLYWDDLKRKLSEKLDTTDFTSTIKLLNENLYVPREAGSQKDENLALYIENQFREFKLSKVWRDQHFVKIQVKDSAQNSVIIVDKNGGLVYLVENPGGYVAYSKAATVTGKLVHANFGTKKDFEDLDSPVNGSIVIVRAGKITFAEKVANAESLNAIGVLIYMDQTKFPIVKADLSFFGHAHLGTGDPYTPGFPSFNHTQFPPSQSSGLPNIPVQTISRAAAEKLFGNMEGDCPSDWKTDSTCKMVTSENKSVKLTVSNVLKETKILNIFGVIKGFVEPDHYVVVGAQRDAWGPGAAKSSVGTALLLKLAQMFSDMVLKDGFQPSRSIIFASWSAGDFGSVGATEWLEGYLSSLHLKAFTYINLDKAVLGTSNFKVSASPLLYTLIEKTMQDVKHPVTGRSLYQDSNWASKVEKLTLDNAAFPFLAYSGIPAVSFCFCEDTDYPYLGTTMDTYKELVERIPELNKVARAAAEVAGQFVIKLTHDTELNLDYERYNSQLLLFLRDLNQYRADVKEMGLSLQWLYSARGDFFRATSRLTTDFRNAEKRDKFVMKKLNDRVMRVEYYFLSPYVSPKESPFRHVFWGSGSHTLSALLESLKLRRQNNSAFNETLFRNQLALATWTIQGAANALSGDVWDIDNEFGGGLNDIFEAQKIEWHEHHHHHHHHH
As to the kind of experiment: BLI (GatorBio), biotinylated TfR on probe.

Assay [2] deals with T1, Cyno TfR ECD Avi-His. As to the kind of experiment: SPR (Carterra LSA), 2+1 immobilised. As for the experimental part:
The remaining unconjugated active groups on the chip were then blocked by injecting 1M Ethanolamine pH 8.5 (Carterra) for 7 minutes using the single channel flow cell.
Estimates of affinity were generated by injecting each analyte over the entire antibody array using the single channel flow cell. […] Data were processed and analyzed using NextGenKIT high-throughput kinetics analysis software (Carterra).

B1: TfR9.1B.39 2+1 anti-TfR bispecific antibody (bispecific antibody, human IgG1, kappa)
heavy 1: EVRLLESGGGLVQPGGSLRLSCAASGFTFSNYAMGWVRQAPGKGLEWVSAISGSGGSTYYADSVKGRFTTSRDDSKNALYLQMNSLRAEDTAVYYCARGGPGWYAADVWGQGTTVTVSSASTKGPSVFPLAPSSKSTSGGTAALGCLVKDYFPEPVTVSWNSGALTSGVHTFPAVLQSSGLYSLSSVVTVPSSSLGTQTYICNVNHKPSNTKVDKKV[here human IgG1 Fc with changes without letters]GGGGSGGGGSGGGGSQVQLVQSGAEVKKPGASVKVSCKASGYTFTEYAMHWVRQAPGQGLEWMGGINPNDGGTSYNQKFKGRVTMTVDTSTSTAYMELSSLRSEDTAVYYCASQGWLLRGGDYWGQGTLVTVSSGGSEGKSSGSGSESKSTGGSDVVMTQSPLSLPVTLGQPASISCKASQSLLDEDGKTYLNWLQQRPGQSPRRLIYLVSKLDSGVPDRFSGSGSGTDFTLKISRVEAEDVGVYYCWQGTHFPQTFGGGTKVEIK
heavy 2: EVRLLESGGGLVQPGGSLRLSCAASGFTFSNYAMGWVRQAPGKGLEWVSAISGSGGSTYYADSVKGRFTTSRDDSKNALYLQMNSLRAEDTAVYYCARGGPGWYAADVWGQGTTVTVSS[here human IgG1 constant region with changes without letters]
light: DIQMTQSPSSLSASVGDRVTITCRASQSISSYLNWYQQKPGKAPKLLIYAASSLQSGVPSRFSGSGSGTDFTLTISSLQPEDFATYYCQQADLPAFAFGGGTKVEIKRTVAAPSVFIFPPSDEQLKSGTASVVCLLNNFYPREAKVQWKVDNALQSGNSQESVTEQDSKDSTYSLSSTLTLSKADYEKHKVYACEVTHQGLSSPVTKSFNRGEC
notes: 2+1
Consider B1, for which, in the assay with Cyno TfR ECD Avi-His [1], binding was characterised by a dissociation constant (Kd) of 1300 nM.

B2: TfR15.WH8 2+1 anti-TfR bispecific antibody (bispecific antibody, human IgG1, kappa)
heavy 1: EVRLLESGGGLVQPGGSLRLSCAASGFTFSNYAMGWVRQAPGKGLEWVSAISGSGGSTYYADSVKGRFTTSRDDSKNALYLQMNSLRAEDTAVYYCARGGPGWYAADVWGQGTTVTVSSASTKGPSVFPLAPSSKSTSGGTAALGCLVKDYFPEPVTVSWNSGALTSGVHTFPAVLQSSGLYSLSSVVTVPSSSLGTQTYICNVNHKPSNTKVDKKV[here human IgG1 Fc with changes without letters]GGGGSGGGGSGGGGSQVQLVQSGAEVKKPGASVKVSCKASGYTFTSYWMHWVRQAPGQGLEWMGNIYPGSGSSNYAQKFQGRVTMTRDTSTSTVYMELSSLRSEDTAVYYCTRSSYYGNFDTMDNWGQGTTVTVSSGGSEGKSSGSGSESKSTGGSEIVLTQSPATLSLSPGERATLSCRASSSIRYMNWYQQKPGQAPRRLIYDTSNRATGIPARFSGSGSGTDFTLTISSLEPEDFAVYYCHQRSSYPWTFGGGTKVEIK
heavy 2: EVRLLESGGGLVQPGGSLRLSCAASGFTFSNYAMGWVRQAPGKGLEWVSAISGSGGSTYYADSVKGRFTTSRDDSKNALYLQMNSLRAEDTAVYYCARGGPGWYAADVWGQGTTVTVSS[here human IgG1 constant region with changes without letters]
light: DIQMTQSPSSLSASVGDRVTITCRASQSISSYLNWYQQKPGKAPKLLIYAASSLQSGVPSRFSGSGSGTDFTLTISSLQPEDFATYYCQQADLPAFAFGGGTKVEIKRTVAAPSVFIFPPSDEQLKSGTASVVCLLNNFYPREAKVQWKVDNALQSGNSQESVTEQDSKDSTYSLSSTLTLSKADYEKHKVYACEVTHQGLSSPVTKSFNRGEC
notes: 2+1
On to B2, for which binding with Cyno TfR ECD Avi-His [2] was characterised by a dissociation constant (Kd) of 18 nM.

B3: TfR15.WH12 2+1 anti-TfR bispecific antibody (bispecific antibody, human IgG1, kappa)
heavy 1: EVRLLESGGGLVQPGGSLRLSCAASGFTFSNYAMGWVRQAPGKGLEWVSAISGSGGSTYYADSVKGRFTTSRDDSKNALYLQMNSLRAEDTAVYYCARGGPGWYAADVWGQGTTVTVSSASTKGPSVFPLAPSSKSTSGGTAALGCLVKDYFPEPVTVSWNSGALTSGVHTFPAVLQSSGLYSLSSVVTVPSSSLGTQTYICNVNHKPSNTKVDKKV[here human IgG1 Fc with changes without letters]GGGGSGGGGSGGGGSQVQLVQSGAEVKKPGASVKVSCKASGYTFTSYWMHWVRQAPGQGLEWMGNIYPGSGSSNYAQKFQGRVTLTVDTSTSTVYMELSSLRSEDTAVYYCTRSSYYGNFDTMDNWGQGTTVTVSSGGSEGKSSGSGSESKSTGGSDIQMTQSPSSLSASVGDRVTITCRASSSIRYLNWYQQKPGKAPKRLIYDTSSLQSGVPSRFSGSGSGTDFTLTISSLQPEDFATYYCHQRSSYPWTFGGGTKVEIK
heavy 2: EVRLLESGGGLVQPGGSLRLSCAASGFTFSNYAMGWVRQAPGKGLEWVSAISGSGGSTYYADSVKGRFTTSRDDSKNALYLQMNSLRAEDTAVYYCARGGPGWYAADVWGQGTTVTVSS[here human IgG1 constant region with changes without letters]
light: DIQMTQSPSSLSASVGDRVTITCRASQSISSYLNWYQQKPGKAPKLLIYAASSLQSGVPSRFSGSGSGTDFTLTISSLQPEDFATYYCQQADLPAFAFGGGTKVEIKRTVAAPSVFIFPPSDEQLKSGTASVVCLLNNFYPREAKVQWKVDNALQSGNSQESVTEQDSKDSTYSLSSTLTLSKADYEKHKVYACEVTHQGLSSPVTKSFNRGEC
notes: 2+1
In the case of B3, the binding result with Cyno TfR ECD Avi-His [2] was “binds”.

B4: TfR9.1B.39.05 2+1 anti-TfR bispecific antibody (bispecific antibody, human IgG1, kappa)
heavy 1: EVRLLESGGGLVQPGGSLRLSCAASGFTFSNYAMGWVRQAPGKGLEWVSAISGSGGSTYYADSVKGRFTTSRDDSKNALYLQMNSLRAEDTAVYYCARGGPGWYAADVWGQGTTVTVSSASTKGPSVFPLAPSSKSTSGGTAALGCLVKDYFPEPVTVSWNSGALTSGVHTFPAVLQSSGLYSLSSVVTVPSSSLGTQTYICNVNHKPSNTKVDKKV[here human IgG1 Fc with changes without letters]GGGGSGGGGSGGGGSQVQLVQSGAEVKKPGASVKVSCKASGYTFTEYAMHWVRQAPGQGLEWMGGIDPRSGGTSYNQKFKGRVTMTVDTSTSTAYMELSSLRSEDTAVYYCASQGWLKRGGDYWGQGTLVTVSSGGSEGRSSGSGSESKSTGGSDVVMTQSPLSLPVTLGQPASISCKASQSLLDEEGKTYLNWLQQRPGQSPRRLIYLVSKLDSGVPDRFSGSGSGTDFTLKISRVEAEDVGVYYCWQGTHFPQTFGGGTKVEIK
heavy 2: EVRLLESGGGLVQPGGSLRLSCAASGFTFSNYAMGWVRQAPGKGLEWVSAISGSGGSTYYADSVKGRFTTSRDDSKNALYLQMNSLRAEDTAVYYCARGGPGWYAADVWGQGTTVTVSS[here human IgG1 constant region with changes without letters]
light: DIQMTQSPSSLSASVGDRVTITCRASQSISSYLNWYQQKPGKAPKLLIYAASSLQSGVPSRFSGSGSGTDFTLTISSLQPEDFATYYCQQADLPAFAFGGGTKVEIKRTVAAPSVFIFPPSDEQLKSGTASVVCLLNNFYPREAKVQWKVDNALQSGNSQESVTEQDSKDSTYSLSSTLTLSKADYEKHKVYACEVTHQGLSSPVTKSFNRGEC
notes: 2+1; also called TfR9.1B.39.5
On to B4, for which the binding result with Cyno TfR ECD Avi-His [1] is “binds”.

B5: TfR15.WH2 2+1 anti-TfR bispecific antibody (bispecific antibody, human IgG1, kappa)
heavy 1: EVRLLESGGGLVQPGGSLRLSCAASGFTFSNYAMGWVRQAPGKGLEWVSAISGSGGSTYYADSVKGRFTTSRDDSKNALYLQMNSLRAEDTAVYYCARGGPGWYAADVWGQGTTVTVSSASTKGPSVFPLAPSSKSTSGGTAALGCLVKDYFPEPVTVSWNSGALTSGVHTFPAVLQSSGLYSLSSVVTVPSSSLGTQTYICNVNHKPSNTKVDKKV[here human IgG1 Fc with changes without letters]GGGGSGGGGSGGGGSQVQLVQSGAEVKKPGASVKVSCKASGYTFTSYWMHWVRQAPGQGLEWMGIIYPGSGSSNYAQKFQGRVTMTRDTSTSTVYMELSSLRSEDTAVYYCTRSSYYGNFDTMDNWGQGTTVTVSSGGSEGKSSGSGSESKSTGGSEIVLTQSPATLSLSPGERATLSCRASSSIRYMNWYQQKPGQAPRRLIYDTSNRATGIPARFSGSGSGTDFTLTISSLEPEDFAVYYCHQRSSYPWTFGGGTKVEIK
heavy 2: EVRLLESGGGLVQPGGSLRLSCAASGFTFSNYAMGWVRQAPGKGLEWVSAISGSGGSTYYADSVKGRFTTSRDDSKNALYLQMNSLRAEDTAVYYCARGGPGWYAADVWGQGTTVTVSS[here human IgG1 constant region with changes without letters]
light: DIQMTQSPSSLSASVGDRVTITCRASQSISSYLNWYQQKPGKAPKLLIYAASSLQSGVPSRFSGSGSGTDFTLTISSLQPEDFATYYCQQADLPAFAFGGGTKVEIKRTVAAPSVFIFPPSDEQLKSGTASVVCLLNNFYPREAKVQWKVDNALQSGNSQESVTEQDSKDSTYSLSSTLTLSKADYEKHKVYACEVTHQGLSSPVTKSFNRGEC
notes: 2+1
Regarding B5, in the assay with Cyno TfR ECD Avi-His [2], the binding result is “binds”.
